According to patent US20200002439A1 (GENSUN BIOPHARMA, published 2020):

T1: recombinant human VEGF 165 (human, UniProt P15692-4 27-191)
T1 construct: Bought protein
T1 sequence (looked up): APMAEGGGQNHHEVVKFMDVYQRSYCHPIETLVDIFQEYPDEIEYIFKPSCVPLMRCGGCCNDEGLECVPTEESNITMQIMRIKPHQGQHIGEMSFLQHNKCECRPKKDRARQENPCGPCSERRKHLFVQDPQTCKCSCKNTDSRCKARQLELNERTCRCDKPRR

T2: recombinant human Ang2 (human, UniProt O15123 19-496)
T2 construct: also called Ang2 (R&D)
T2 sequence (looked up): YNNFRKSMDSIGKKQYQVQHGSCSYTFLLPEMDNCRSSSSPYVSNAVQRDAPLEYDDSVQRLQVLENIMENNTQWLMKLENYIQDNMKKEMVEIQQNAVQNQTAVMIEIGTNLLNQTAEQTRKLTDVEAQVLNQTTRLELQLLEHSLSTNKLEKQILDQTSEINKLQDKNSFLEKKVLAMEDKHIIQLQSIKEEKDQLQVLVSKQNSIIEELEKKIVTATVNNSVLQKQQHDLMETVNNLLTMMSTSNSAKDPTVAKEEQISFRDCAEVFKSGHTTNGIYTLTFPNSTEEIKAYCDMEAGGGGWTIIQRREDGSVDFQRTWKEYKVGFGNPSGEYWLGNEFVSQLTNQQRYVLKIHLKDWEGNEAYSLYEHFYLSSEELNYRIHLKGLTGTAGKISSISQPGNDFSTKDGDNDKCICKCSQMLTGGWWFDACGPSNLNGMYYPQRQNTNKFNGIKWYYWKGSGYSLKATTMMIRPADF

B1: TS-ZPB-2(2P17) (other)
chain 1: IPPHVQKSVNNDMIVTDNNGAVKFPQLCKFCDVRFSTCDNQKSCMSNCSITSICEKPQEVCVAVWRKNDENITLETVCHDPKLPYHDFILEDAASPKCIMKEKKKPGETFFMCSCSSDECNDNIIFSEEYNTSNPDGGGGSGGGGSGGGGSQVQLVQSGAEVKKPGASVKVSCKASGYTFTSYYIHWVRQAPGQGLEWMGWIFPGSGNSKYNENFKGRVTLTADTSTSTVYMELSSLRSEDTAVYYCASETYDYGDYWGQGTLVTVSSASTKGPSVFPLAPCSRSTSESTAALGCLVKDYFPEPVTVSWNSGALTSGVHTFPAVLQSSGLYSLSSVVTVPSSSLGTKTYTCNVDHKPSNTKVDKRV[human IgG4 Fc with S228P (EU numbers) left out]GGGGSGGGGSGGGGSSDTGRPFVEMYSEIPEIIHMTEGRELVIPCRVTSPNITVTLKKFPLDTLIPDGKRIIWDSRKGFIISNATYKEIGLLTCEATVNGHLYKTNYLTHRQTNTIIDVVLSPSHGIELSVGEKLVLNCTARTELNVGIDFNWEYPSSKHQHKKLVNRDLKTQSGSEMKKFLSTLTIDGVTRSDQGLYTCAASSGLMTKKNSTFVRVHEK
chain 2: DIQMTQSPSFLSASVGDRVTITCKASQNVGTNVAWYQQKPGKAPKALIYSASYRYSGVPSRFSGSGSGTEFTLTISSLQPEDFATYYCQQYYSYPYTFGQGTKLEIKRTVAAPSVFIFPPSDEQLKSGTASVVCLLNNFYPREAKVQWKVDNALQSGNSQESVTEQDSKDSTYSLSSTLTLSKADYEKHKVYACEVTHQGLSSPVTKSFNRGEC
B2: TS-ZPB-5(2P17) (other)
heavy: QVQLVQSGAEVKKPGASVKVSCKASGYTFTSYYIHWVRQAPGQGLEWMGWIFPGSGNSKYNENFKGRVTLTADTSTSTVYMELSSLRSEDTAVYYCASETYDYGDYWGQGTLVTVSSASTKGPSVFPLAPCSRSTSESTAALGCLVKDYFPEPVTVSWNSGALTSGVHTFPAVLQSSGLYSLSSVVTVPSSSLGTKTYTCNVDHKPSNTKVDKRV[human IgG4 Fc with S228P (EU numbers) left out]GGGGSGGGGSGGGGSSDTGRPFVEMYSEIPEIIHMTEGRELVIPCRVTSPNITVTLKKFPLDTLIPDGKRIIWDSRKGFIISNATYKEIGLLTCEATVNGHLYKTNYLTHRQTNTIIDVVLSPSHGIELSVGEKLVLNCTARTELNVGIDFNWEYPSSKHQHKKLVNRDLKTQSGSEMKKFLSTLTIDGVTRSDQGLYTCAASSGLMTKKNSTFVRVHEKGGGGSGGGGSGGGGSIPPHVQKSVNNDMIVTDNNGAVKFPQLCKFCDVRFSTCDNQKSCMSNCSITSICEKPQEVCVAVWRKNDENITLETVCHDPKLPYHDFILEDAASPKCIMKEKKKPGETFFMCSCSSDECNDNIIFSEEYNTSNPD
light: B1 chain 2
notes: also called TS-TPB-5
B3: TS-ZPB-1(2P17) (other)
chain 1: SDTGRPFVEMYSEIPEIIHMTEGRELVIPCRVTSPNITVTLKKFPLDTLIPDGKRIIWDSRKGFIISNATYKEIGLLTCEATVNGHLYKTNYLTHRQTNTIIDVVLSPSHGIELSVGEKLVLNCTARTELNVGIDFNWEYPSSKHQHKKLVNRDLKTQSGSEMKKFLSTLTIDGVTRSDQGLYTCAASSGLMTKKNSTFVRVHEKGGGGSGGGGSGGGGSQVQLVQSGAEVKKPGASVKVSCKASGYTFTSYYIHWVRQAPGQGLEWMGWIFPGSGNSKYNENFKGRVTLTADTSTSTVYMELSSLRSEDTAVYYCASETYDYGDYWGQGTLVTVSSASTKGPSVFPLAPCSRSTSESTAALGCLVKDYFPEPVTVSWNSGALTSGVHTFPAVLQSSGLYSLSSVVTVPSSSLGTKTYTCNVDHKPSNTKVDKRV[human IgG4 Fc with S228P (EU numbers) left out]GGGGSGGGGSGGGGSIPPHVQKSVNNDMIVTDNNGAVKFPQLCKFCDVRFSTCDNQKSCMSNCSITSICEKPQEVCVAVWRKNDENITLETVCHDPKLPYHDFILEDAASPKCIMKEKKKPGETFFMCSCSSDECNDNIIFSEEYNTSNPD
chain 2: B1 chain 2
B4: TS-ZPT-1.1(2P16) (other)
chain 1: SDTGRPFVEMYSEIPEIIHMTEGRELVIPCRVTSPNITVTLKKFPLDTLIPDGKRIIWDSRKGFIISNATYKEIGLLTCEATVNGHLYKTNYLTHRQTNTIIDVVLSPSHGIELSVGEKLVLNCTARTELNVGIDFNWEYPSSKHQHKKLVNRDLKTQSGSEMKKFLSTLTIDGVTRSDQGLYTCAASSGLMTKKNSTFVRVHEKGGGGSGGGGSGGGGSQVQLVQSGAEVKKPGASVKVSCKASGYTFTTYYIYWVRQAPGQGLEWMGGINPGNGGTNFNEKFKIRVTMTRDTSISTAYMELSSLRSEDTAVYYCARRYHGYDGGLDYWGQGTLVTVSSASTKGPSVFPLAPCSRSTSESTAALGCLVKDYFPEPVTVSWNSGALTSGVHTFPAVLQSSGLYSLSSVVTVPSSSLGTKTYTCNVDHKPSNTKVDKRV[human IgG4 Fc with S228P (EU numbers) left out]GGGGGAQQEECEWDPWTCEHMGSGSATGGSGSTASSGSGSATHQEECEWDPWTCEHMLE
chain 2: SDTGRPFVEMYSEIPEIIHMTEGRELVIPCRVTSPNITVTLKKFPLDTLIPDGKRIIWDSRKGFIISNATYKEIGLLTCEATVNGHLYKTNYLTHRQTNTIIDVVLSPSHGIELSVGEKLVLNCTARTELNVGIDFNWEYPSSKHQHKKLVNRDLKTQSGSEMKKFLSTLTIDGVTRSDQGLYTCAASSGLMTKKNSTFVRVHEKGGGGSGGGGSGGGGSDIVLTQSPASLAVSPGQRATITCRASKSVSTSGFSYIHWYQQKPGQPPKLLIYLASNLESGVPARFSGSGSGTDFTLTINPVEANDTANYYCQHTWELPNTFGGGTKVEIKRTVAAPSVFIFPPSDEQLKSGTASVVCLLNNFYPREAKVQWKVDNALQSGNSQESVTEQDSKDSTYSLSSTLTLSKADYEKHKVYACEVTHQGLSSPVTKSFNRGEC
B5: TS-ZPT-1.2(2P16) (other)
chain 1: B4 chain 1
chain 2: DIVLTQSPASLAVSPGQRATITCRASKSVSTSGFSYIHWYQQKPGQPPKLLIYLASNLESGVPARFSGSGSGTDFTLTINPVEANDTANYYCQHTWELPNTFGGGTKVEIKRTVAAPSVFIFPPSDEQLKSGTASVVCLLNNFYPREAKVQWKVDNALQSGNSQESVTEQDSKDSTYSLSSTLTLSKADYEKHKVYACEVTHQGLSSPVTKSFNRGEC
B6: TS-ZPT-1.3(2P16) (other)
chain 1: QVQLVQSGAEVKKPGASVKVSCKASGYTFTTYYIYWVRQAPGQGLEWMGGINPGNGGTNFNEKFKIRVTMTRDTSISTAYMELSSLRSEDTAVYYCARRYHGYDGGLDYWGQGTLVTVSSASTKGPSVFPLAPCSRSTSESTAALGCLVKDYFPEPVTVSWNSGALTSGVHTFPAVLQSSGLYSLSSVVTVPSSSLGTKTYTCNVDHKPSNTKVDKRV[human IgG4 Fc with S228P (EU numbers) left out]GGGGGAQQEECEWDPWTCEHMGSGSATGGSGSTASSGSGSATHQEECEWDPWTCEHMLE
chain 2: B4 chain 2

Key:
[1] = target: T3, human PD-1 on transfected CHO-K1 cells (human, UniProt Q15116 25-288); assay: cell-based blocking assay, flow cytometry: binding of FITC labeled human PD-L1-Fc to human PD-1 transfected CHO-K1 cells is blocked
T3 construct: also called Human PD-1 transfected CHO-K1 cells
Experimental: Incubate for 15 mins before analysis with the iQue intellicyt system.

[2] = target: T1, recombinant human VEGF 165; assay: blocking ELISA: VEGF-165 coated on the plate, binding of recombinant human VEGFR-2-hu IgG1-His Tag is blocked
Experimental: Briefly, 0.5 ug/ml of recombinant human VEGF-165 (R&D #293-VE-050/CF) in carbonate-bicarbonate buffer was coated to the wells in a 96-well assay plate and incubated overnight at 4° C. The wells were then washed 3 times with 0.05% Tween 20 in PBS (wash buffer), blocked with 1% BSA in PBS for 1 hour at room temperature, and washed 3 times with wash buffer. 50 μl 5-fold serially diluted antibodies were then added to wells in the plate and incubated for 30 minutes at room temperature. […] 100 μl anti-His tag HRP (1:10,000) was then added and the plates were incubated for 40 mins at room temperature and washed 3 times with wash buffer.

human TGFβ1 = human TGFβ1 (human, UniProt P01137 part only); assay: cell-based or functional assay
human TGFβ1, sequence (P01137 279-390 limits assumed): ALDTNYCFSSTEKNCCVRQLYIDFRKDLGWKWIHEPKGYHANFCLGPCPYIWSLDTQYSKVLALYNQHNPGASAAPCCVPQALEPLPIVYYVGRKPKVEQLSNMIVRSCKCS

[3] = target: T3, human PD-1 on transfected CHO-K1 cells; assay: cell-based blocking assay, flow cytometry: binding of FITC labeled human PD-L1-Fc to human PD-1 transfected CHO-K1 cells is blocked; remark: listed apart in the source
T3 sequence (Q15116 25-288 limits assumed): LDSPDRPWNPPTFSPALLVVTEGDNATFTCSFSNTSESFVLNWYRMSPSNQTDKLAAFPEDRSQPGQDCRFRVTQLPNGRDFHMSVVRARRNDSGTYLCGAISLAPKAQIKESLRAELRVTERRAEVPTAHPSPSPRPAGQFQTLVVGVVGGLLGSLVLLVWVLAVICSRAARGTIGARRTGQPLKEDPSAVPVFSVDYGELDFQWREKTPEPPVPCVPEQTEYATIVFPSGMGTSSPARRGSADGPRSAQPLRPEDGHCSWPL

recombinant human Ang2 = target: T2, recombinant human Ang2; assay: blocking ELISA: Ang2 coated on the plate, binding of recombinant human Tie2 is blocked
Experimental: IC50 values were determined as the mid-point in the activity curve.

Binder	IC50 [1] [nM]	IC50 [2] [nM]	IC50; luciferase signal of TGFβ/SMAD SBE Reporter-HEK293 cells stimulated with human TGFβ1 (human TGFβ1) [nM]	IC50 [3] [nM]	IC50 (recombinant human Ang2) [nM]
B1	11.1	1.92	0.24		
B2	2.72	6.58	0.17		
B3	9.29	1.32	0.07		
B4				140	
B5				14.8	0.95
B6				33	

Where two headings read alike, the source gives them in different places.
